Assay results from PubChem BioAssay AID1671194 (National Center for Advancing Translational Sciences (NCATS), 2021).
Out of some 140,000 compounds screened, about 240 (0.17%) were called active. Inconclusive results, whose numbers are uncertain, are shown with a selection of clear calls. Calls follow the shape of the dose curve; as a rule, active = well fitted inhibition curve with a large enough effect; inconclusive = small, poorly fitted or top-dose-only effect; inactive = no such curve, though single readings can be large or run the other way. A potency beside an inconclusive call is a rough fit, not a confirmed value.
Potency is read from the fitted curve at half-maximal effect; tags tell the direction and shape of the fitted curve.

Assay: Primary qHTS assay for inhibitors of alpha-synuclein gene (SNCA) expression; also: nearly all actives have a fitted effect of over 45% in size;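 as to activity change, negative = inhibition: plate controls were DMSO cells for no effect and cell-free wells for full effect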
Conditions: HEK-293 SNCA-luciferase knock-in, luminescence, 24 h; activity change, negative = inhibition: at 57.2 µM (top of the series) unless noted
In the case of `Cc1cccc(CN2CCCC3(CCN(C(=O)CCc4ccccc4C)C3)C2)c1` (stereo not drawn), the Potency is reported as inconclusive: 14.1 µM [inhibitor, partial curve, poor fit]. With `COc1ccc(Cn2c(SCC(=O)Nc3ccc(OC)cc3)nc3ccccc32)cc1` the Potency was inconclusive: 11.2 µM [inhibitor, partial curve, poor fit]. With `COCCOc1ccc2c(n1)CCN(C(=O)NC1CCCC1)C2` the Potency was inconclusive: 8.91 µM [inhibitor, single point]. In the case of `Cc1ccc(Nc2c(-c3ccsc3)nc3cccc(C)n23)cc1`, the Potency is reported as inconclusive: 39.8 µM [inhibitor, single point]. In the case of `CN(C)C(=O)C1CN(C(=O)c2ccc(Cl)s2)CC12CCOCC2` (stereo not drawn), the Potency is reported as inconclusive: 12.6 µM [inhibitor, single point]. In the case of `c1ccc(CN2CCCCC2c2nc(CCOCC3CCCC3)no2)nc1` (stereo not drawn), the Potency is reported as active: 22.4 µM. In the case of `COc1cccc(Cn2c(=O)cnc3cncnc32)c1`, the Potency is reported as inconclusive: 35.5 µM [inhibitor, single point]. With `Cc1cc(C)n(-c2cccc(CN3CCN(C4CCNC4)CC3)c2)n1` (stereo not drawn) the “activity change, negative = inhibition” value was inactive: 1.06%. For `CC1CCN(C(=O)c2cc3c(=O)n(C)c4ccccc4c3s2)CC1`, the Potency was inconclusive: 25.1 µM [inhibitor, partial curve, poor fit]. In the case of `O=C(O)CCC(=O)N1Cc2[nH]cnc2C[C@H]1c1nc(-c2ccc(OC(F)(F)F)cc2)no1`, the Potency is reported as inconclusive: 39.8 µM [inhibitor, single point]. In the case of `COCCNC(=O)c1ccc2oc(-c3ccncc3Cl)nc2c1`, the Potency is reported as inconclusive: 35.5 µM [inhibitor, single point]. With `Cc1cnc(CCNC(=O)c2n[nH]c(=O)c3ccccc23)n1C1CCC1` the Potency was inconclusive: 28.2 µM [inhibitor, single point]. With `Cc1nn2c(c1-c1ccccc1-c1ccccc1)N(Cc1ccccc1)CCC2` the Potency was inconclusive: 5.01 µM [inhibitor, full curve, poor fit]. With `COc1ccc(Cn2c(CCC(=O)Nc3cccc(OC)c3)nc3cccnc32)cc1` the Potency was inconclusive: 3.16 µM [inhibitor, single point]. For `Cc1cccc(C)c1NC(=O)CSc1nc2ncccc2o1`, the Potency was inconclusive: 39.8 µM [inhibitor, single point]. In the case of `CCN1C(=O)c2ccccc2Sc2ccc(NC(=O)Nc3ccccc3OC)cc21`, the Potency is reported as inconclusive: 12.6 µM [inhibitor, partial curve, poor fit]. For `CCOCCn1nc(C)cc1C(=O)N[C@H](c1ccccn1)C1CC(O)C1` (stereo partly drawn), the “activity change, negative = inhibition” value was inactive: 6.32%. In the case of `COCCN(C)C(=O)C(C)(C)Oc1nn(Cc2cccc(Cl)c2)c2ccccc12`, the “activity change, negative = inhibition” value is reported as inactive: -26.9% [at 87.6 µM]. For `CCCCN(CCCNC(=O)c1ccc(Sc2ccc(Cl)cc2)c(NC(C)=O)c1)c1ccccc1`, the Potency was inconclusive: 2.51 µM [inhibitor, full curve]. For `COCC(=O)NC[C@H]1CCN(Cc2cn(C)c3ccccc23)C[C@H]1N(C)C`, the Potency was inconclusive: 39.8 µM [inhibitor, single point]. In the case of `Cc1c(Cl)cccc1NC(=O)Cn1cc(C(=O)C2CCCCC2)c2ccccc21`, the Potency is reported as inconclusive: 39.8 µM [inhibitor, single point]. For `O=c1ncn(CC2CC2)c2ccc(-c3ccc(F)cc3F)nc12`, the “activity change, negative = inhibition” value was inactive: 88.3% [at 87.6 µM]. For `CN1c2cccnc2CN(Cc2ccco2)CC[C@H]1CO`, the Potency was inconclusive: 14.1 µM [inhibitor, single point]. For `CCn1cc(-c2ccc(Cl)cc2)cc1C(=O)O`, the “activity change, negative = inhibition” value was inactive: 26.9%. With `Cc1ccc(C(=O)N2CCC(N3C(=O)CCC3C(=O)NCc3ccccc3)CC2)cc1` (stereo not drawn) the “activity change, negative = inhibition” value was inactive: -11%. In the case of `CC(C)(O)CCc1ccc(C(=O)NCCc2c[nH]c(=O)[nH]c2=O)cc1`, the Potency is reported as inconclusive: 35.5 µM [inhibitor, single point]. With `CC(=O)N1CCCN(C(=O)c2cnc3c(c2)N(C(=O)Cc2ccc(C(C)C)cc2)CCC3)CC1` the Potency was inconclusive: 3.55 µM [inhibitor, single point]. In the case of `O=C1CC2(CCN(c3nc(-c4ccccc4)no3)CC2)CN1Cc1ccccc1`, the “activity change, negative = inhibition” value is reported as inactive: -11.6%. With `COCc1cc(C)nc2sc(C(=O)Nc3ccc(OC(F)(F)F)cc3)c(N)c12` the Potency was inconclusive: 8.91 µM [inhibitor, partial curve]. In the case of `NC(=O)[C@H]1CCS[C@@H]2C[C@]3(CCCN3C(=O)Cc3ccc(NC(=O)COc4ccc(Cl)cc4Cl)cc3)C(=O)N12`, the Potency is reported as inconclusive: 2.15 µM [inhibitor, full curve, poor fit]. In the case of `COc1cccc(-c2ccc(C(=O)N3CCC(C(=O)N4CCC(Cc5ccccc5)CC4)CC3)cc2)c1`, the “activity change, negative = inhibition” value is reported as inactive: -2.69%. With `O=C(NCC1CN(CC2CC2)CC12CN(c1ccccc1)C2)c1ccccc1` (stereo not drawn) the Potency was inconclusive: 11.2 µM [inhibitor, full curve, poor fit]. For `Cc1cc(C(=O)N[C@@H]2CN(Cc3cccnc3)C[C@H]2CN(C)C)no1`, the Potency was inconclusive: 8.91 µM [inhibitor, partial curve]. For `COCCNC(=O)CN1C(=O)NC(c2cccs2)C2=C1COC2=O` (stereo not drawn), the Potency was inconclusive: 3.55 µM [inhibitor, single point]. With `Cc1cccc(C(=O)N2CCc3cc(CNC(=O)c4ccc(Br)o4)ccc32)c1` the Potency was inconclusive: 39.8 µM [inhibitor, single point]. For `CCc1ccc(S(=O)(=O)c2cnc3ccc(OC)cc3c2N2CCCC(C)C2)cc1` (stereo not drawn), the Potency was inconclusive: 39.8 µM [inhibitor, single point]. For `Cc1ccc(Cl)cc1-n1ncc2c(NC3CCCCC3)ncnc21`, the Potency was inconclusive: 39.8 µM [inhibitor, single point]. With `COc1ccc(CCC(=O)NCC2Cn3cccc3C(=O)N2Cc2cccnc2)cc1` (stereo not drawn) the Potency was inconclusive: 17.8 µM [inhibitor, single point]. For `COc1ccc2[nH]c3c(c2c1)CCNC31CCN(C(=O)c2ccsc2)CC1`, the Potency was inconclusive: 25.1 µM [inhibitor, partial curve, poor fit]. In the case of `COc1ccc(-c2cc3nc4c(c(=O)n3[nH]2)CN(C(=O)CCc2ccccc2)CC4)cc1`, the “activity change, negative = inhibition” value is reported as inactive: -24.1%. For `CCC(C)NC(=O)N1CC(Oc2ccccc2-c2nc(-c3ccccc3)no2)C1` (stereo not drawn), the Potency was inconclusive: 12.6 µM [inhibitor, partial curve, poor fit]. With `Cc1ccc(C)c(NC(=O)Cn2nnc(C(=O)NCCc3ccccc3)c2N)c1` the Potency was inconclusive: 31.6 µM [inhibitor, single point]. For `Cc1ccc(C)c(S(=O)(=O)c2nnn3c2nc(NC2CCCCC2)c2sccc23)c1`, the Potency was inconclusive: 39.8 µM [inhibitor, single point]. For `CCCNC(=O)N1CC(Oc2ccccc2-c2nc(CCOC)no2)C1`, the Potency was inconclusive: 2.51 µM [inhibitor, full curve, poor fit]. In the case of `CCSc1ccccc1C(=O)Nc1ccc(-c2nc3ccccc3s2)c(O)c1`, the “activity change, negative = inhibition” value is reported as inactive: 186%. For `CCOc1ccc(-c2c(C)nn3c(C)c(C(=O)NCCc4ccc(Cl)cc4)cnc23)cc1OCC`, the Potency was inconclusive: 14.1 µM [inhibitor, partial curve, poor fit]. In the case of `O=C(NCc1ccccc1Cl)C1CCCCN1Cc1ccc(-c2ccsc2)cc1` (stereo not drawn), the “activity change, negative = inhibition” value is reported as inactive: -9.17%. In the case of `CC(=O)NC1(C)CCN(Cc2ccc(-c3ccc(N4CCOCC4)cc3)cc2)C1` (stereo not drawn), the “activity change, negative = inhibition” value is reported as inactive: 92% [at 87.6 µM]. In the case of `CC(=O)N1C[C@@H]2CCCN3CCC[C@@H]([C@H]23)[C@H]1CCCC(=O)NCCC(C)C`, the Potency is reported as inconclusive: 39.8 µM [inhibitor, single point]. For `CC(C)C(=O)N1CCc2ccc(OCc3nc(C(=O)N4CCCC4)co3)cc2C1c1cccc(F)c1` (stereo not drawn), the “activity change, negative = inhibition” value was inactive: 11.7%. For `COc1ccc(NC(=O)c2c(-c3ccccc3)c(-c3ccccc3)nn(C)c2=O)cc1OC`, the Potency was inconclusive: 2.82 µM [inhibitor, full curve, poor fit]. With `CCOC(=O)c1cccc(NC(=O)C2Cc3ccccc3N2C(=O)c2ccccc2)c1` (stereo not drawn) the Potency was inconclusive: 7.08 µM [inhibitor, single point]. With `CCc1ccc([S+](=O)([O-])c2nnn3c2nc(NCc2ccncc2)c2ccccc23)cc1` the “activity change, negative = inhibition” value was inactive: 17%. For `O=C(Nc1cccc(Cl)c1)[C@@H]1C[C@@H](c2ccc(F)cc2)N([S+](=O)([O-])c2cccnc2)C1`, the Potency was inconclusive: 39.8 µM [inhibitor, single point]. For `CCS(=O)(=O)N1CCC(N2C(=O)C3(CCCC3)C2c2ccccc2)CC1` (stereo not drawn), the Potency was inconclusive: 12.6 µM [inhibitor, partial curve, poor fit]. In the case of `Fc1ccc2nc([C@H]3CCN(C4CCC4)C3)[nH]c2c1`, the “activity change, negative = inhibition” value is reported as inactive: -28.5% [at 87.6 µM]. For `Cc1cc(C)cc(NC(=O)c2cc3n(n2)CC(c2ccc(Cl)cc2)OC3)c1` (stereo not drawn), the Potency was inconclusive: 25.1 µM [inhibitor, single point]. With `Cc1ccc(S(=O)(=O)N2CCCc3cc(NS(=O)(=O)c4cc(C)ccc4C)ccc32)cc1` the Potency was inconclusive: 17.8 µM [inhibitor, single point]. For `O=C(Nc1ccc(F)cc1)c1cc2n(n1)CC(c1ccc3c(c1)OCO3)OC2` (stereo not drawn), the Potency was inconclusive: 28.2 µM [inhibitor, partial curve, poor fit]. For `COCc1ccc2c(c1)c(OC(C)(C)C(=O)N1CCN(C)CC1)nn2Cc1ccccc1`, the Potency was inconclusive: 39.8 µM [inhibitor, single point]. With `COc1ccc(C(=O)N2CCC3(C2)C(=O)N(Cc2ccccc2)c2ccccc23)cc1` (stereo not drawn) the Potency was inconclusive: 39.8 µM [inhibitor, single point]. For `Cc1cccc(NS(=O)(=O)c2ccc3[nH]c4c(c3c2)CCCCCC4)c1`, the Potency was inconclusive: 0.708 µM [inhibitor, partial curve, poor fit]. In the case of `CN1[C@@H](CCC(=O)NCc2ccc(F)cc2)CNC(=O)[C@@H]2[C@H]1CCN2Cc1ccc(O)cc1`, the Potency is reported as inconclusive: 7.08 µM [inhibitor, single point].
